From patent publication US20250241301A1, “COMPOSITIONS AND METHODS FOR INHIBITING PATHOGEN GROWTH ON PLANTS AND IMPROVING CROP SAFETY” (priority 2024, published 2025)

Tests used:
potato tubers [1] = experiment: T2H / ethoxy diglycol vapor treatment of potato tubers, skin lesion count (Table 10); conditions: Cecile, T2H […] alone or in mixture, EDG alone 0.45 ml/kg, n = 5 tubers
potato tubers [2] = experiment: T2H / propylene glycol vapor treatment of potato tubers, recirculating set-up, skin lesion count (Tables 5-8); conditions: for Fresh Lesions/5 Tubers (96 h) / No. of Lesions/5 Tubers (48 h) / TOTAL No. of Lesions/5 Tubers / Total Number of Lesions/5 Tubers 48 h / Total Number of Lesions/5 Tubers TOTAL / Total No. of Lesions 48 h / Total No. of Lesions 96 h / Total No. of Lesions TOTAL: vapor; for Total No. of Lesions 48 h / Total No. of Lesions 96 h / Total No. of Lesions TOTAL: Table 8, T2H […] alone or in mixture, PG alone 0.45 ml/kg, n = 5 tubers
[3] = Table 5, Norland Red, T2H 0.27 ml/kg alone or in mixture, PG alone 0.27 ml/kg
[4] = Table 5, Yukon Gold, T2H 0.27 ml/kg alone or in mixture, PG alone 0.27 ml/kg
[5] = Table 6 (repeat experiment), Norland Red, T2H 0.27 mL/kg alone or in mixture, PG alone 0.27 mL/kg
[6] = Table 6 (repeat experiment), Yukon Gold, T2H 0.27 mL/kg alone or in mixture, PG alone 0.27 mL/kg
[7] = Table 7, Norland Red, T2H 0.10 mL/kg alone or in mixture, PG alone 0.10 mL/kg
[8] = Table 7, Yukon Gold, T2H 0.10 mL/kg alone or in mixture, PG alone 0.10 mL/kg

Compound	TOTAL (No. of Lesions) (potato tubers [1])	Total No. of Lesions 48 h (potato tubers [1])	Total No. of Lesions 96 h (potato tubers [1])	Fresh Lesions/5 Tubers (96 h) (potato tubers [2]; [3])	No. of Lesions/5 Tubers (48 h) (potato tubers [2]; [3])	TOTAL No. of Lesions/5 Tubers (potato tubers [2]; [3])	Fresh Lesions/5 Tubers (96 h) (potato tubers [2]; [4])	No. of Lesions/5 Tubers (48 h) (potato tubers [2]; [4])	TOTAL No. of Lesions/5 Tubers (potato tubers [2]; [4])	TOTAL No. of Lesions/5 Tubers (potato tubers [2]; [5])	Total Number of Lesions/5 Tubers 48 h (potato tubers [2]; [5])	TOTAL No. of Lesions/5 Tubers (potato tubers [2]; [6])	Total Number of Lesions/5 Tubers 48 h (potato tubers [2]; [6])	Total Number of Lesions/5 Tubers 48 h (potato tubers [2]; [7])	Total Number of Lesions/5 Tubers TOTAL (potato tubers [2]; [7])	Total Number of Lesions/5 Tubers 48 h (potato tubers [2]; [8])	Total Number of Lesions/5 Tubers TOTAL (potato tubers [2]; [8])	Total No. of Lesions 48 h (potato tubers [2]; Cecile)	Total No. of Lesions 96 h (potato tubers [2]; Cecile)	Total No. of Lesions TOTAL (potato tubers [2]; Cecile)	also measured
CCOCCOCCO [EDG, ethoxy diglycol]	14	3	11																		
CC(O)CO (centres unmarked) [PG, propylene glycol]				13	10	23	10	5	15	17	14	24	15	5	8	6	8	15	11	26	Total No. of Lesions 48 h (potato tubers [2]; Isabella): 12; Total No. of Lesions 96 h (potato tubers [2]; Isabella): 19; Total No. of Lesions TOTAL (potato tubers [2]; Isabella): 31
CCC/C=C/C=O [T2H, trans-2-hexenal]	49	12	37	40	32	72	32	24	56	55	26	58	33	9	25	16	39	74	58	132	Total No. of Lesions 48 h (potato tubers [2]; Isabella): 43; Total No. of Lesions 96 h (potato tubers [2]; Isabella): 37; Total No. of Lesions TOTAL (potato tubers [2]; Isabella): 80; lesions/skin damage on potato tubers (FIG. 1) (potato tubers [2]; trans-2-hexenal vapors at 0.15 ml/kg): lesions/skin damage observed
